Test results published in article PMC5515408.
This is one part of the list. At the low end of the ranking the order means little.

system: MYC (p64) + MAX (p21), in MYC:MAX; assay: protein-binding microarray (anti-MAX antibody); conditions: PBM: 15 mM Tris-HCl pH 7.5, 100 mM KCl, 0.075% NP40, 7.5 mM beta-mercaptoethanol, 375 ng/ul BSA, 8 ng/ul poly(dA-dT):(dA-dT), 550 ng complex, 60 min, room …; high values mean tight binding; double strand, one strand shown; sequences stand for … in CCGGC…TTAATAGCTAAGATTACTATATCGACG

Sequence | binding signal (log2 normalized fluorescence)
TGATATCCTGTA | -0.145
TGAATTGGCGTA | -0.0447
TGAGAACTCGTA | 0.0801
TGACGCAAGGTA | 0.403
TGACGATTAGTA | -0.114
TGATCGGGTGTA | -0.0626
AGACACATGGTA | 0.834
TGACAATGTGTA | 0.306
TGAGGAGAGGTA | -0.114
TGGCCCGGGGTA | -0.135
TGACGAGCGGTA | 0.129
TGAACGGTTGTA | 0.123
TGAGGAACGGTA | 0.0489
TGAAAAGGTGTA | -0.0366
TGATATTCCGTA | -0.277
TGACCACGAGTA | 0.396
TGACGGGTCGTA | -0.0876
TGACTACACGTA | 0.312
TGATGTGTAGTA | 0.146
TGAGTTCTCGTA | -0.0697
TGAGCCAAGGTA | -0.0677
TGACTACGGGTA | 0.0808
TGACACCGAGTA | 0.235
TGACGGAGTGTA | 0.165
TGGGCACCCATT | 0.0703

Sequence | binding signal (log2 normalized fluorescence)
TGAGGCCCCGTA | 0.00137
TGACACGTGTGT | 0.7
TGAACGGTAGTA | -0.0533
AATACAGCTTAC | 0.307
TGACAACACGTA | 0.272
TGACGACTCGTA | 0.0913
TGAGCCACCGTA | 0.0224
TGACGCAAAGTA | -0.0251
TGACACGTGCAC | 0.88
TGACACGCCCTA | 0.532
TGACGTTGCGTA | 0.0681
TGAATGGAAGTA | 0.124
TGATTCAAGGTA | 0.0939
TGATTTCGAGTA | -0.12
TGAGTAGCCGTA | -0.168
TGAAGAGACGTA | 0.0477
TGAGGAGGGGTA | 0.563
TGAATTCAAGTA | -0.0366
TGAATGGGTGTA | 0.184
TGACTCCTGATA | 0.0186
TGAAAATTAGTA | -0.172
TGACTACTCGTA | 0.137
TGACGGGGTGTA | 0.469
TGAATTTGGGTA | -0.119
TGATGTACAGTA | 0.152

Sequence | binding signal (log2 normalized fluorescence)
TGACTGTCCGTA | 0.0679
TGATTTATTGTA | -0.188
TGACGGTCAGTA | -0.0768
TGCAACGTGGTA | 0.701
TGACAACCTGTA | 0.243
TGACGTGTCGTA | 0.274
TGAATGCCAGTA | 0.189
TGAGCGCCGGTA | 0.021
TGACTCGTAGTG | -0.0654
TGACCCCACGTA | 0.193
TGACACTTGCTG | 0.248
TGACATTGGGTA | 0.339
TGAGTGTTAGTA | 0.177
TGACGCTAGGTA | 0.0464
TGATGACTCGTA | 0.153
TGACCCAACGTA | 0.253
TGACACGTGTTG | 0.83
TGACACATGGAA | 0.739
TGATTACTAGTA | -0.0547
CCTGTGCTGAGC | 0.268
TGACGAGGGGTA | 0.262
TGAATGCGCGTA | 0.29
TGAAGCTCGGTA | 0.0311
TGAGTCAGGGTA | -0.143
TGAACCGTTGTA | 0.0326

Sequence | binding signal (log2 normalized fluorescence)
TGAATAGGCGTA | -0.0708
TGACCCCGAGTA | 0.209
TGAAAGTGCGTA | 0.349
TGACTTGGGGTA | 0.0955
TGAGTGCCCGTA | 0.154
TGACACGTGATC | 0.744
TGACACGTGTAA | 0.708
TGATTCTCCGTA | -0.172
TGACTTAAAGTA | 0.0159
TGTCACGTGGAA | 0.766
TGACACGAGGCG | 0.566
TGAGACGATGTA | -0.0304
TGATTGGCTGTA | -0.261
TGAATGTAGGTA | 0.115
TGAGCTAAAGTA | -0.0842
TGAAGCAGGGTA | 0.0399
TGACCACAAGTA | 0.407
TGAGCGACTGTA | 0.116
TGACACGTATGA | 0.343
TGATGTCTCGTA | 0.169
TGACGTCCAGTA | 0.172
TGACGCGTGGTA | 0.398
TGAAAAGTGGTA | 0.0228
TGATCATGCGTA | 0.415
TGACAGTTTGTA | 0.0712

Sequence | binding signal (log2 normalized fluorescence)
TGAGCGATAGTA | -0.0333
TGAATTTCTGTA | -0.0074
TGATGAGTGGTA | 0.165
TGATTCCAGGTA | 0.0199
TGAAGACTTGTA | 0.00922
TGACAGAGTGTA | 0.254
TGATAGACAGTA | 0.0938
TGAGTCCAAGTA | -0.077
TGAAGTGTTGTA | 0.108
ACTTATAGATTT | 0.0214
TGAGGTCTCGTA | 0.0819
TGACATTAAGTA | 0.0899
TGAATCCCGGTA | -0.0316
TGAAGAACTGTA | 0.104
TGAGTCCGCGTA | 0.0725
TGAGTAAAAGTA | -0.207
TGAGCAGCTGTA | 0.134
TGAGCTGGGGTA | 0.102
TGAACGCGAGTA | 0.27
TGAGCCGTGGTA | 0.133
TGAGTTAATGTA | -0.0995
TGATGCAGAGTA | 0.0296
TGAAGCGGCGTA | 0.0733
TGATACGTCGTA | 0.0297
TGAGTAGAGGTA | -0.202

Sequence | binding signal (log2 normalized fluorescence)
TGTAACGTGGTA | 0.561
TGAGGGTTAGTA | 0.0301
TATTACGTGGTA | 0.323
TGAAGTAGCGTA | 0.0615
AGACGGGAGGTT | 0.196
TGACAAGTTGTA | 0.0647
TGACCGGTCGTA | 0.187
TGACGGGTGGTA | 0.25
TGAAGGCGTGTA | 0.409
TGATTTGGCGTA | -0.169
TGATACTAAGTA | -0.00702
TGAGGAGCAGTA | -0.103
TGAGCTCACGTA | 0.183
TGATCTACGGTA | -0.0274
TGAAACACGGTA | 0.314
TGAACATGAGTA | 0.232
TGACCTTCAGTA | 0.196
TGACGCGTGCTA | 0.61
TGACCGAGCGTA | 0.252
TGAAGTAGGGTA | -0.117
TGAATGGCGGTA | 0.208
TGAACTCAGGTA | 0.097
TGACTCCAGGTA | 0.1
TGAGGGTCTGTA | 0.0879
TGAGTACACGTA | 0.0802

Sequence | binding signal (log2 normalized fluorescence)
TGACAGCAAGTA | 0.286
TGAATGAGGGTA | 0.205
TGAAGCGGGGTT | 0.29
TGATCTGCTGTA | -0.133
TGAGCATTTGTA | 0.251
TGAAGGCTCGTA | -0.0491
TGAAGTGATGTA | 0.206
TGACAGTCGGTA | 0.0326
TGAGGGGAGGTA | 0.438
TAACAAGTGATA | 0.257
TGAATTTGAGTA | -0.118
TGAGGACGCGTA | 0.165
TGATAGCAGGTA | 0.127
TGACACATGGTC | 0.657
TGAAGTACGGTA | 0.0239
TGATCGCCAGTA | -0.0281
TGACACGTGGGC | 0.74
TCCAACGTGGTA | 0.579
TGAGTCCAGGTA | -0.252
TGAAGCAGTGTA | 0.026
TGACATCCTGTA | 0.102
TGACACACGGTA | 0.561
TGAGCTGACGTA | -0.0553
TGACGCCTTGTA | 0.156
TGACTCGGAGTA | -0.15
